Data taken from patent publication US20180305437A1 (Affibody, published 2018).
Residue numbers refer to the chain shown, from its start.

T1: human B7-H3 Fc Chimera (R&D Systems, cat. no. 1027-B3-100) (human, UniProt Q5ZPR3-2 29-245)
T1 construct: Bought; biotinylated in ELISA, amine-coupled in Biacore; also called hB7-H3; not shown: Fc part of the bought Fc chimera; not described
T1 sequence (looked up): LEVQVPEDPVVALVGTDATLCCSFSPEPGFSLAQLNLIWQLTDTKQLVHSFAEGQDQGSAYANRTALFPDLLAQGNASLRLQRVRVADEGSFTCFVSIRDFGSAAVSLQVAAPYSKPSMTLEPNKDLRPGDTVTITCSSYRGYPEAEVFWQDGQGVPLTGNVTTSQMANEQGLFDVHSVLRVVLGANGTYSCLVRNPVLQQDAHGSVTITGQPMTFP

T2: human B7-H4 (R&D Systems, cat. no. 6576-B7-50) (human, UniProt Q7Z7D3 29-258)
T2 construct: Bought; biotinylated in ELISA, amine-coupled in Biacore; also called hB7-H4
T2 sequence (looked up): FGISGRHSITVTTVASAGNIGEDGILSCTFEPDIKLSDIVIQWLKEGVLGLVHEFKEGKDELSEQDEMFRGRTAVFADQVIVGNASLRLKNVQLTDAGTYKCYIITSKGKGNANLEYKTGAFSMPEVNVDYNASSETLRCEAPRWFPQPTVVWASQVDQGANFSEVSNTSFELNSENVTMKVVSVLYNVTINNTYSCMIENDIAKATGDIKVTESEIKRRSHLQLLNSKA

T3: human PD-L2 Fc Chimera (R&D Systems, cat. no. 1224-PL-100) (human, UniProt Q9BQ51 20-219)
T3 construct: Bought; biotinylated in ELISA, amine-coupled in Biacore; also called hPD-L2; not shown: Fc part of the bought Fc chimera; not described
T3 sequence (looked up): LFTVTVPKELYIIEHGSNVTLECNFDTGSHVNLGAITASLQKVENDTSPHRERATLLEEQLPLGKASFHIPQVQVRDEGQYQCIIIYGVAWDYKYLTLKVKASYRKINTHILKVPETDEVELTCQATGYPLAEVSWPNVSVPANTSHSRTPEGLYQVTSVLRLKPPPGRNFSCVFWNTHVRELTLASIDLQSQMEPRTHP

B1: Z13166 (SEQ ID NO:1) as fusion to ABD, periplasmic extract (designed binder)
chain: AQHDEALEVDAKYAKERTVAVWEIVQLPNLTAWQKGAFINKLHDDPSQSSELLSEAKKLNDSQAPKVDYVLAEAKVLANRELDKYGVSDYYKNLINNAKTVEGVKALIDEILAALPYVPG
notes: domain: ABD, GA3 of protein G
B2: Z13178 (SEQ ID NO:2) as fusion to ABD, periplasmic extract (designed binder)
chain: B1 chain with V19W, V25M, Q26D, W33G, K35R
notes: domain: ABD, GA3 of protein G
B3: Z13359 (SEQ ID NO:3) as fusion to ABD, periplasmic extract (designed binder)
chain: B1 chain with V19I, V25M, Q26D, A32S, K35R, N40D
notes: domain: ABD, GA3 of protein G
B4: Z13398 (SEQ ID NO:4) as fusion to ABD, periplasmic extract (designed binder)
chain: B1 chain with V19M, V21T, W33R, N40W
notes: domain: ABD, GA3 of protein G
B5: His6-tagged Z variant Z13359 (SEQ ID NO:3) (designed binder)
chain: MGSSHHHHHHLQVDAKYAKERTIAVWEIMDLPNLTSWQRGAFIDKLHDDPSQSSELLSEAKKLNDSQAPKVD
notes: Monomeric; also called His-tagged Z13359
B6: His6-tagged Z variant Z13178 (SEQ ID NO:2) (designed binder)
chain: B5 chain with I23W, S36A, W37G, D44N
notes: Monomeric; also called His-tagged Z13178
B7: His6-tagged Z variant Z13166 (SEQ ID NO:1) (designed binder)
chain: B5 chain with I23V, M29V, D30Q, S36A, R39K, D44N
notes: Monomeric; also called His-tagged Z13166
B8: His6-tagged Z variant Z13398 (SEQ ID NO:4) (designed binder)
chain: B5 chain with I23M, V25T, M29V, D30Q, S36A, W37R, R39K, D44W
notes: Monomeric; also called His-tagged Z13398

Molecular target: T4, human PD-L1 Fc Chimera (R&D Systems, cat. no. 156-B7-100) (human, UniProt Q9NZQ7 19-239)
T4 construct: Biotinylated (Sulfo-NHS-LC-Biotin) in ELISA and AlphaLISA; amine-coupled to a CM5 chip in Biacore; also called hPD-L1; B7-H1; not shown: Fc part (and any linker) of the bought Fc chimera; not described
T4 sequence (Q9NZQ7 19-239 limits assumed, change not shown): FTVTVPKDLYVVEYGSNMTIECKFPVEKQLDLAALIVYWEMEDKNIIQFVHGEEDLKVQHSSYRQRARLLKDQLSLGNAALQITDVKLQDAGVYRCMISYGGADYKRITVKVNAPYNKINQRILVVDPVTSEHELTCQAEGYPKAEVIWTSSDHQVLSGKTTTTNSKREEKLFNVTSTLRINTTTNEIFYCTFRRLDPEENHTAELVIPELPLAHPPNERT
Test: ELISA titration, Z-ABD captured by anti-ABD antibody, dilution series of biotinylated hPD-L1
Method: (§1) Half-area 96-well ELISA plates (Costar, cat. no. 3690) were coated at 4° C. overnight with 2 μg/ml of an anti-ABD goat antibody (produced in-house) diluted in coating buffer (50 mM sodium carbonate, pH 9.6; Sigma, cat. no. C3041). The antibody solution was poured off and the wells were washed in water and blocked with 100 μl of PBSC (PBS supplemented with 0.5% casein; Sigma, cat. no. C8654) for 1 to 3 h at RT. The blocking solution was discarded and 50 μl periplasmic solutions, diluted 1:1 with PBST 0.05%, were added to the wells and incubated for 1.5 to 2.5 h at RT under slow agitation. As a blank control, PBST 0.05% was added instead of a periplasmic sample. The supernatants were poured off and the wells were washed 4 times with PBST 0.05%. […] Streptavidin conjugated HRP (Thermo Scientific, cat. no. N100) diluted 1:30,000 in PBSC, was added to the wells and the plates were incubated for approximately 1 h. After washing as described above, 50 μl ImmunoPure TMB substrate (Thermo Scientific, cat. no. 34021) was added to the wells and the plates were treated according to the manufacturer's recommendations.
(§2) As a background control, all Z variants were also assayed with no target protein added. […] Periplasm containing the ABD moiety only was used as a negative control.

Row | EC50 [nM] | Binder
1 | 0.19 | B1
2 | 0.26 | B2
3 | 0.3 | B3
4 | 0.15 | B4

Molecular target: T4, human PD-L1 Fc Chimera (R&D Systems, …)
Test: AlphaLISA blocking assay, 8 nM biotinylated hPD-L1, competitor hPD-1 on Acceptor beads
Method: (§3) Finally, streptavidin coated Donor beads (Perkin Elmer, cat. no. 6772002) were added to a final concentration of 40 μg/ml and incubated for 30 min. All incubations were performed at RT in the dark. The plate was analyzed in the EnSpire instrument and the IC50 values were calculated using GraphPad Prism 5.

Row | IC50 [nM] | Binder
5 | 1.8 | B5
6 | ~10 | B6

Molecular target: T1, human B7-H3 Fc Chimera (R&D Systems, …)
Test: SPR (Biacore 2000), target immobilized on CM5, Z variant injected
Method: (§4) One flow cell surface on each chip was activated and deactivated for use as blank during analyte injections. In the kinetic experiment, HBS-EP was used as running buffer and the flow rate was 50 μl/min. The analytes, i.e. the Z variants, were each diluted in HBS-EP buffer within a concentration range of 1000 to 0.01 nM and injected for 5 min, followed by dissociation in running buffer for 15-25 min. After dissociation, the surfaces were regenerated with one or two injections of 0.1% SDS. Kinetic constants were calculated from the sensorgrams using the Langmuir 1:1 model of BiaEvaluation software 4.1 (GE Healthcare).

Row | Binder | binding result
7 | B7 | no binding (tested: concentration range of 1000 to 0.01 nM)
8 | B8 | no binding (tested: concentration range of 1000 to 0.01 nM)
9 | B5 | no binding (tested: 500 nM)
10 | B6 | no binding (tested: 500 nM)

Molecular target: T2, human B7-H4 (R&D Systems, cat. no. …)
Test: as above
Method: as §4

Row | Binder | binding result
11 | B7 | no binding (tested: concentration range of 1000 to 0.01 nM)
12 | B8 | no binding (tested: concentration range of 1000 to 0.01 nM)
13 | B5 | no binding (tested: 500 nM)
14 | B6 | no binding (tested: 500 nM)

Molecular target: T3, human PD-L2 Fc Chimera (R&D Systems, …)
Test: as above
Method: as §4

Row | Binder | binding result
15 | B7 | no binding (tested: concentration range of 1000 to 0.01 nM)
16 | B8 | no binding (tested: concentration range of 1000 to 0.01 nM)
17 | B5 | no binding (tested: 500 nM)
18 | B6 | no binding (tested: 500 nM)

Molecular target: T4, human PD-L1 Fc Chimera (R&D Systems, …)
Test: SPR (Biacore 2000), hPD-L1 immobilized on CM5, 1:1 model, approximate (5 and 50 nM)
Method: as §4

Row | Kd [nM] | koff [s⁻¹] | kon [M⁻¹ s⁻¹] | Binder
19 | 0.4 | 0.0026 | 7.4e+06 | B7
20 | 0.73 | 0.0037 | 5.1e+06 | B8
21 | 15 | 0.028 | 1.9e+06 | B5
22 | ≤ 540 | ≤ 1e-05 |  | B6

Molecular target: T4, human PD-L1 Fc Chimera (R&D Systems, …)
Test: AlphaLISA blocking assay, 10 nM biotinylated hPD-L1, competitor hPD-1 on Acceptor beads
Method: as §3

Row | IC50 [nM] | Binder
23 | 6.2 | B7
24 | 4.9 | B8

Molecular target: T5, mouse PD-L1 Fc Chimera (R&D Systems, cat. no. 1019-B7) (mouse, UniProt Q9EP73 19-238)
T5 construct: Bought; amine-coupled to a CM5 chip; also called mPD-L1; not shown: Fc part of the bought Fc chimera; not described
T5 sequence (Q9EP73 19-238, change not shown): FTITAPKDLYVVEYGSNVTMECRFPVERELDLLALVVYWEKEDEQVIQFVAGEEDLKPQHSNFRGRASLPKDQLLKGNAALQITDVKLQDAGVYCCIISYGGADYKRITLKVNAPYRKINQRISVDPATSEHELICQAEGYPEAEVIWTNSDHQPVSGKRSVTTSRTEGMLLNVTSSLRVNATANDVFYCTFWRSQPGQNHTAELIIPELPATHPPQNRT
Test: SPR (Biacore 2000), mPD-L1 immobilized on CM5, Z variant injected
Method: as §4

Row | Binder | binding result
25 | B7 | no binding (tested: concentration range of 1000 to 0.01 nM)
26 | B8 | no binding (tested: concentration range of 1000 to 0.01 nM)

Molecular target: T6, rhesus PD-L1/Fc Chimera (Sino Biological Inc., cat. no. 90251-C02H) (rhesus monkey, UniProt F6PJN1 19-239)
T6 construct: Bought; amine-coupled to a CM5 chip; also called RhPD-L1; rhesus monkey PD-L1; not shown: Fc part of the bought Fc chimera; not described
T6 sequence (F6PJN1 entry or part of it C02H C02H): as the sequence (Q9NZQ7 19-239 limits assumed, change not shown) above, with A33T, A34S, S62N, R68Q, Q82R, F173L, T185A, T192I, H215L counted along it
Test: SPR (Biacore 2000), RhPD-L1 immobilized on CM5, approximate (one concentration, 5 nM)
Method: as §4

Row | Kd [nM] | koff [s⁻¹] | kon [M⁻¹ s⁻¹] | Binder
27 | 20 | 0.0097 | 490000 | B5
28 | 22 | 0.0025 | 110000 | B6

Molecular target: T1, human B7-H3 Fc Chimera (R&D Systems, …)
Test: ELISA: Z variant-ABD fusion captured on anti-ABD antibody, biotinylated control protein added at 8 nM
Method: as §1, §2

Row | binding result | Binder
29 | no binding (tested: 8 nM) | B1
30 | no binding (tested: 8 nM) | B3
31 | no binding (tested: 8 nM) | B4

Molecular target: T2, human B7-H4 (R&D Systems, cat. no. …)
Test: as above
Method: as §1, §2

Row | binding result | Binder
32 | no binding (tested: 8 nM) | B1
33 | no binding (tested: 8 nM) | B3
34 | no binding (tested: 8 nM) | B4

Molecular target: T3, human PD-L2 Fc Chimera (R&D Systems, …)
Test: as above
Method: as §1, §2

Row | binding result | Binder
35 | no binding (tested: 8 nM) | B1
36 | no binding (tested: 8 nM) | B3
37 | no binding (tested: 8 nM) | B4
